Measurements as given in article PMC4336329 (PLoS ONE, 2015).
The whole screen tested about 310,000 compounds, of which about 2,200 (0.71%) showed an effect of 50% or more. The effect is printed as a negative number. This is one part of the list.

What follows are compounds tested against human ether-à-go-go-related gene (hERG) potassium channel (human, UniProt Q12809) (assay: primary screen, population patch clamp on CHO cells stably expressing hERG).
human ether-à-go-go-related gene (hERG) potassium channel, sequence (Q12809 whole entry, looked up): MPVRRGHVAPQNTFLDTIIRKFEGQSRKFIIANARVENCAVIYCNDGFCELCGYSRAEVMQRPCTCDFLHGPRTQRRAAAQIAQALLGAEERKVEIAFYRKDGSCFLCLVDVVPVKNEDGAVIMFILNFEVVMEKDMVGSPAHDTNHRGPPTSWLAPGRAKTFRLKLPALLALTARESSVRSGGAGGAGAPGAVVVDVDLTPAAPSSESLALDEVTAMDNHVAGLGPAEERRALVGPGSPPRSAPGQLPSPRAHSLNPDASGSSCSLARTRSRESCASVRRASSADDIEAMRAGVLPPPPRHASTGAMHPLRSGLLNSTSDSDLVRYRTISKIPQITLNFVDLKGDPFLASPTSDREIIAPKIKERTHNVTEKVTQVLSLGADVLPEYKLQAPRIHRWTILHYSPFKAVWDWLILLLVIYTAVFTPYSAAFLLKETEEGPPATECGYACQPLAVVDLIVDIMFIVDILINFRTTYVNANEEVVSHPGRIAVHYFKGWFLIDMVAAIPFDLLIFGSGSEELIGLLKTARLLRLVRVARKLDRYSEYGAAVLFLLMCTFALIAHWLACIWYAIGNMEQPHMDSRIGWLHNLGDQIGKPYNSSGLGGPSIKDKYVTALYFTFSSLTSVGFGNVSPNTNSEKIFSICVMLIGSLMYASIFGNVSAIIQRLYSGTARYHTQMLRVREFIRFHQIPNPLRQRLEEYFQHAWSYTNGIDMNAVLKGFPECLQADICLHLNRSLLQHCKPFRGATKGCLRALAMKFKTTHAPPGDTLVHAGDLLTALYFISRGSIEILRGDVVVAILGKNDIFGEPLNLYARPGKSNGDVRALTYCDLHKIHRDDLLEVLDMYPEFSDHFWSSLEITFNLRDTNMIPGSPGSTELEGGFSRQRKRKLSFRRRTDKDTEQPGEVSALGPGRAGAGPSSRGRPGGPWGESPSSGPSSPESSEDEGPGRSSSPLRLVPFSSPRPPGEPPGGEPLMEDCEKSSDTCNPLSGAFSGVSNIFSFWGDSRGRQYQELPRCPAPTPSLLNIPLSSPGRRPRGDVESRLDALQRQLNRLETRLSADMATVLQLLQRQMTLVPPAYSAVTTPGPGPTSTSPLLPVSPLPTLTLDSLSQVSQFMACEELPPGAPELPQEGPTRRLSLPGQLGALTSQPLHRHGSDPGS

| Structure (SMILES) | hERG current change (%, negative = inhibition) at 1uM |
| --- | --- |
| CC(C)(C)c1ccc(C(=O)N/C(=C\c2cccc([N+](=O)[O-])c2)C(=O)Nc2cccc(C(=O)O)c2)cc1 | 11.7% |
| Fc1ccccc1/C=N/Nc1nc(N2CCCCC2)nc(N2CCCCC2)n1 | 8.57% |
| COc1cccc(N(C(=O)CNC(=O)c2ccco2)C(C(=O)NC2CCCC2)c2cccnc2)c1 (stereo not shown) | -2.6% |
| O=S(=O)(NC1CCN(Cc2ccccc2)CC1)c1cccc2cccnc12 | -6.17% |
| CCc1nc(N)nc(N)c1-c1ccc(Cl)cc1 | -0.702% |
| COC(=O)CC1=C(C(=O)OC)C2(C(=O)Nc3c(C)cccc32)C(C#N)=C(N)O1 (stereo not shown) | 15.4% |
| CCCCNC(=O)Cn1cnc2c(cnn2-c2ccc(C)cc2)c1=O | 13.9% |
| COc1ccccc1/C=C(\NC(=O)c1ccc(OC)c(OC)c1)C(=O)Nc1cccc([N+](=O)[O-])c1 | 7.69% |
| Cc1cccnc1CC(C)NC(=O)c1cc(COc2cncc(Cl)c2)on1 (stereo not shown) | 14.7% |
| O=C(Nc1cccc(NC(=O)c2cccs2)c1)c1ccc(Br)cc1 | 12.2% |
| Cc1ccc(NC(=O)CN2C(=O)COc3ccc(C)cc32)nc1 | 11.3% |
| CCCc1nc(SCC(=O)Nc2ccc(S(=O)(=O)N(C)C)cc2)c2ccccc2n1 | 5.62% |
| O=C(Nc1ccc(-c2nc3cc(Cl)ccc3o2)cc1)C1CCCO1 (stereo not shown) | 6.6% |
| CC(Nc1ccc2ccccc2c1)C(=O)N/N=C/c1ccncc1 (stereo not shown) | -12.4% |
| COc1cccc(NC(=O)CN(C)C(C)C(=O)Nc2ccc(S(=O)(=O)N3CCCC3)cc2)c1 (stereo not shown) | 8.31% |
| Cc1cccc2c(C(=O)O)cc(-c3cccnc3)nc12 | 18.7% |
| CC(CCCC(C)(C)O)NC(=O)c1ccc(OC2CCN(C(=O)C3CC3)CC2)cc1 (stereo not shown) | 9.14% |
| Cc1nc(N2CCN(Cc3ccccc3)CC2)nc2c1C(=O)CC(c1ccco1)C2 (stereo not shown) | -0.677% |
| O=[N+]([O-])c1cc([N+](=O)[O-])c2cccnc2c1Oc1ccccc1O | 10% |
| Cc1ccc(C(CC(=O)O)NC(=O)c2ccc(S(=O)(=O)N3CC(C)OC(C)C3)cc2)cc1 (stereo not shown) | 9.17% |
| COc1ccc2c(=O)c(C(=O)NCCc3ccc(OC)c(OC)c3)c[nH]c2c1 | 13.6% |
| O=C(NCCc1ccc(C(F)(F)F)cc1)C1CCC(=O)N(CCc2cccc(F)c2)C1 (stereo not shown) | -8.56% |
